First the molecules themselves.
T1: UNK ZnF1-3 (human, UniProt Q9C0B0 31-174)
T1 sequence: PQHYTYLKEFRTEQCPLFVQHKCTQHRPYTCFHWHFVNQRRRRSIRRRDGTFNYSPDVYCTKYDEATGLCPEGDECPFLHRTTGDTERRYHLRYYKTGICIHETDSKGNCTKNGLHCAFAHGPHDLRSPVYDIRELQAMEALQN

B1: chrX:160370135:160370136:+_ENSMUSG00000031367_ENSMUST00000069041|mus_mus|FALSE|FALSE (ssRNA)
RNA: GGGAGUUCUACAGUCCGACGAUCAAUGAAGCAGCUUAGCAAAACAGUAAUACUGACAAGACAUCAUCUUACACCAUUAGCUAACAUGGACAUGAGAGGCAGUGACCAUCUACAGUGUGAAAUGCCACAAGAAGUCAUCAGCAACAACAGAGGAUUGAGCAUCA
B2: chr2:155483576:155483577:-_ENSMUSG00000038324_ENSMUST00000041059|mus_mus|FALSE|FALSE (ssRNA)
RNA: GGGAGUUCUACAGUCCGACGAUCCUGAGCAUUUUUGGCAAGAAGCGUGUGUUUGUCGUCAUUCCCCGUGUCCAUCUCUGAAAUGGUGACAGCCAGGAUCCUGCAGAAGUUAGCAAGCUGCUGCUGAUCGAAAUUGGAUACUAACAACAGAGGAUUGAGCAUCA
B3: chr9:108469239:108469240:-_ENSMUSG00000070283_ENSMUST00000074208|mus_mus|FALSE|FALSE (ssRNA)
RNA: GGGAGUUCUACAGUCCGACGAUCCAGCCGGUCGACGUGCCGACAGAGCGGCGCAGGUCGCGUUCGGAAAAGGCAGCGAAAUCCUAGAGCAGUAGCCAUGGCUGCAACGGCGCUUAACGACCCGGUCGUAGGGACAGAGUUGUCCAACAGAGGAUUGAGCAUCA
B4: chr16:94651144:94651145:+_ENSMUSG00000040785_ENSMUST00000117648|mus_hu|mus_mus_mus_hu_True|8_68 (ssRNA)
RNA: GGGAGUUCUACAGUCCGACGAUCAUUUUCUUGAAUCAAGUGGCGAAUAACAUAGUCCACUGCUUCAUGGACAAAAUUUCUGCUAGAAAAACAGGUUGUAUAGUCUUCUGUGCUCAAAACUUUCCAAGAGAGCAGCUCUUUGAGCAACAGAGGAUUGAGCAUCA
B5: chr5:40767622:40767623:-_ENSG00000132356_ENST00000397128|hu_mus|hu_hu_hu_mus_False|48_58 (ssRNA)
RNA: GGGAGUUCUACAGUCCGACGAUCAUCUUUUAUUGCGGCCCUCUUCAUGGGAUCCACCUGCAGCAUAUGUUUCAAAAGGCUAAUCACAGAAGGAUUUAAGUACUGAGGGGUAUAAAAGAUCCCAUCACAUAUCUUCUUAAAAAGCAACAGAGGAUUGAGCAUCA
B6: chr11:77336104:77336105:-_ENSG00000074201_ENST00000525064|hu_mus|hu_hu_hu_mus_False|68_68 (ssRNA)
RNA: GGGAGUUCUACAGUCCGACGAUCCUCACACAUUGCUGUGAACAUCGCCUCCAAUGCUGACUUAUCACUAGGCACAAAUCGAAAUUCAGAAAUGGGUUCAACAUCAUCAUUGUCUUCCUCAUCUUCAUCAGAGAGAGGUUCUUUCAACAGAGGAUUGAGCAUCA
B7: chr2:135883765:135883766:+_ENSG00000115839_ENST00000442034|hu_mus|FALSE|FALSE (ssRNA)
RNA: GGGAGUUCUACAGUCCGACGAUCAGAAUAAACAUCAUUAUCUACAAUGAUCCCUUCUGUCAAAUGAGGCCACGUUGUUGCUAAAUGGAGUUCACUGAUAGGAUCUUCACAGGCACCAAAUGGCAACUUGCCGAACUCCAGGCCCAACAGAGGAUUGAGCAUCA
B8: chr3:150289777:150289778:+_ENSG00000144895_ENST00000460851|hu_hu|motif|central (ssRNA)
RNA: GGGAGUUCUACAGUCCGACGAUCUUUGGCAGGCAUAAAACCAUAUACAGCACAAAACUCAGUAGAACUAGAAUUCCAAACGGCAUCAUAAAUGGGGCCAUUUUUUGGUAAUUGCACUACAGCACUUUCUCCAUUUGUUGCAAUCAACAGAGGAUUGAGCAUCA
B9: chr2:148701057:148701058:-_ENSG00000115947_ENST00000542387|hu_hu|motif|central (ssRNA)
RNA: GGGAGUUCUACAGUCCGACGAUCUGACCGCAGGUUUUUGCUGAUAUUGAAAUGCUUCUGUAGUACUUCUUGCACACUUCGGUCUUCUGAGAGAUACUGAACAUUUUCAUUCCACUUCUCAGCAAAAACCUUGUCUGGAAACUCCAACAGAGGAUUGAGCAUCA
B10: chr5:54662584:54662585:+_ENSG00000039123_ENST00000230640|hu_hu|FALSE|FALSE (ssRNA)
RNA: GGGAGUUCUACAGUCCGACGAUCAAUUUCUUCUACACGUAGUAAGUUCAAAACCAUGUUGUAGGUCAAAUGGAAAGCACUAUUUAGAGGAUCAGCGGAGCCCUUAAGUAAUUGUUUUCCAAUUGUUGGGCUCAUCUUUUCAUCCAACAGAGGAUUGAGCAUCA
B11: chr1:186721242:186721243:-_ENSMUSG00000026620_ENSMUST00000027929|mus_hu|FALSE|FALSE (ssRNA)
RNA: GGGAGUUCUACAGUCCGACGAUCAAAAUAACAAGUAUUAAAAUGUACCUUUACUAGUGGUUUUACAUCGCAUAUAUCACUAAUUAUGAAAGAAAAGUAGGCAAAUGCCCAAUCACAAAGCGGCACAUUAUAGGCAUAAUGAUGCAACAGAGGAUUGAGCAUCA
B12: 90705518_90705638_1207_3pUTR_ENSMUSG00000027282_ENSMUST00000136872|mouse|control|control (ssRNA)
RNA: GGGAGUUCUACAGUCCGACGAUCAUGUCUCACUUCAAAUAACUAAUGGGGAACCCCAGUGGUAAAAGAUGUUGUGCUAGGACAAAGAACAAAAAAGGCAGACACCAAUCACCUCCAUUUUCCCAAGAUUAAAUGAUUAUUAAACAACAGAGGAUUGAGCAUCA
B13: chr9:108415247:108415248:+_ENSMUSG00000032604_ENSMUST00000006838|mus_hu|FALSE|FALSE (ssRNA)
RNA: GGGAGUUCUACAGUCCGACGAUCAUUGCCUCAAAGAGCAGCAGUGACUCCUCCAUGGGACGGUCUCUCCAGGGUGAAGGCAGAGUAUUAUGGCCUUUGAGCUCCUCUCCUCGCUGGUGGCACACAUAAGCCAGACCCCUGCGGCAACAGAGGAUUGAGCAUCA
B14: chr6:38652254:38652255:-_ENSG00000124767_ENST00000373365|hu_hu|hu_hu_hu_mus_False|28_48 (ssRNA)
RNA: GGGAGUUCUACAGUCCGACGAUCCGAGAACUUCAUAGCAGGGAAGUCAAGCUUCUGCAGGAGGGUCAGUCCAAGAACCCUCGUAUAAAAAUCCAGUGACUUCUUAGGAUCCUUCACUCUUAGCAUCGUUUGCUGCAGUAGAAACAACAGAGGAUUGAGCAUCA

This is an account of results in PMC12136788.

Some of the results follow.

For the assay, the target named is T1, UNK ZnF1-3. In words: nsRBNS (natural sequence RNA bind-n-seq); RBNS binding buffer (assumed for nsRBNS): 25 mM Tris pH 7.5, 150 mM KCl, 3 mM MgCl2, 0.01% Triton X-100, 500 ug/ml BSA, 20 U/ml SUPERase-In, 4 C; UNK is unkempt and MSI1 is Musashi-1; names of the RNAs are library labels; protein concentration not given here; high values mean tight binding.
Take B1: the binding signal came out at 1.52 enrichment R. B2 returned a binding signal of 1.28 enrichment R. As to B3, the binding signal stood at 0.576 enrichment R.

The molecule B4 came in with a binding signal of 0.833 enrichment R. For B5 the value was 1.39 enrichment R; for B6, 0.926 enrichment R.

B7: the binding signal came to 1.48 enrichment R. For B8 the value was 0.964 enrichment R; for B9, 0.237 enrichment R; for B10, 0.658 enrichment R. For B11 the value was 0.91 enrichment R; for B12, 1.91 enrichment R.

In turn, B13 gave a binding signal of 0.734 enrichment R.

Consider B14, for which the binding signal was 0.646 enrichment R.
